Reference: US8486398B2, “Anticoagulant antidotes comprising antibodies that bind dabigatran and/or related compounds” (Boehringer Ingelheim International GmbH, priority 2010, dated 2013)

Columns and labels:
Format in all cases: biochemical
[1] = tested on: dabigatran anticoagulant activity; experiment: Neutralization of dabigatran anticoagulant activity, thrombin clotting time in human plasma; conditions: 30 nM dabigatran, 1.5-2 U/mL thrombin
Experimental: Two series of experiments were performed to show the effect of the antibodies against dabigatran anticoagulant activity in vitro. The four polyclonal antibodies were received in the laboratory and further tested in human plasma. This was tested in the functional assay, the thrombin clotting time.
The thrombin clotting time is performed as follows. […] It is used within 2 hrs of being prepared.

[2] = tested on: dabigatran anticoagulant activity; experiment: Neutralization of dabigatran anticoagulant activity, thrombin clotting time in human whole blood; conditions: 30 nM dabigatran, 1.5-2 U/mL thrombin
Experimental: FIG. 7: A mouse monoclonal antibody (Clone 22) reverses the anticoagulant effect of dabigatran in human plasma and in human whole blood. Increasing concentrations of mouse antibody were added to human plasma or whole blood that had been preincubated with 30 nM dabigatran. The assay was initiated by the addition of 1.5-2 U/mL of thrombin and clotting time was measured. 100% dabigatran activity was defined as the difference in clotting time in the presence and absence of compound.
The mouse monoclonal antibody clone 22 was tested for its ability to neutralize dabigatran anticoagulant activity in human plasma in the thrombin clotting time assay outlined in Example II. […] (FIG. 8).

[3] = tested on: dabigatran acylglucuronide; experiment: Neutralization of dabigatran acylglucuronide, thrombin clotting time in human plasma; conditions: 7 nM dabigatran acylglucuronide, 0.4 U/mL thrombin
Experimental: FIG. 9: A mouse monoclonal antibody (Clone 22) reverses the anticoagulant effect of dabigatran acylglucuronide in human plasma. Increasing concentrations of mouse antibody were added to human plasma that had been preincubated with 7 nM of dabigatran acylglucuronide or dabigatran. The assay was initiated by the addition of 0.4 U/mL of thrombin and clotting time was measured. 100% inhibition was defined as the complete block of the compound mediated increase in clotting time.
The major metabolic pathway of dabigatran in humans is through the glucuronidation of the carboxylate moiety. […] To test whether the mouse monoclonal antibody clone 22 could neutralize these metabolites, dabigatran acylglucuronides were purified from the urine of rhesus monkeys treated with dabigatran and evalulated in the thrombin clotting time assay. […] Thus the antibody is effective in blocking the anticoagulant activity of dabigatran metabolites found in humans.

B1: Clone 22: mouse monoclonal anti-dabigatran antibody, DBG 22 VH SEQ ID NO: 20, DBG 22 VK SEQ ID NO: 21 (antibody, listed as Mus musculus, V domains shown)
VH: QVQLEQSGPGLVAPSQRLSITCTVSGFSLTSYIVDWVRQSPGKGLEWLGVIWAGGSTNYNSALRSRLSITKSNSKSQVFLQMNSLQTDDTAIYYCASAAYYSYYNYDGFAYWGQGTLVTVSA
VL: DVVMTQTPLTLSVTIGQPASISCKSSQSLLYTNGKTYLYWLLQRPGQSPKRLIYLVSKLDSGVPDRFSGSGSGTDFTLKISRVEAEDVGIYYCLQSTHFPHTFGGGTKLEIK
reversal of dabigatran mediated prolongation of clotting time [1]: dose dependently inhibited the dabigatran mediated prolongation of clotting time
reversal of dabigatran mediated prolongation of clotting time ([1]; listed as clone 22): completely reversed the dabigatran-mediated prolongation of thrombin dependent clotting
reversal of dabigatran mediated prolongation of clotting time [2]: effectively inhibited dabigatran function
reversal of dabigatran acylglucuronide induced prolongation in clotting time [3]: dose dependently inhibited the dabigatran acylglucuronide induced prolongation in clotting time
